# Data reported in PubChem BioAssay AID686978 (National Center for Advancing Translational Sciences (NCATS), 2013).
# The whole screen tested about 420,000 compounds, of which about 64,000 (15%) were called active. Inconclusive means that the source gave no clear call. Such entries were picked first, then a sample of the others. The call rests on the fitted dose curve; in most records, active means well fitted inhibition curve with a large enough effect; inconclusive means small, poorly fitted or top-dose-only effect; inactive means flat fitted curve, though single readings scatter. Potencies of inconclusive entries are left out as doubtful fits.
# Experiment: qHTS for Inhibitors of human tyrosyl-DNA phosphodiesterase 1 (TDP1): qHTS in cells in absence of CPT; further: nearly all actives have a fitted effect of over 55% in size
# Details: DT40 Tdp1-/- hTDP1 cells, no CPT, ATP luminescence, 48 h; activity change, negative = growth inhibition: at 46.2 µM (top of the series) unless noted
# In short: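 Growth of hTDP1-complemented DT40 Tdp1-knockout cells is measured by ATP luminescence after at least 48 hr compound exposure at 37 °C, with DMSO substituting for the 20 nM CPT used in the parallel screen.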
# On the % scale 0 is the no-effect control and ±100 the full control effect; potency means the concentration at half of the fitted maximal effect; tags describe the fitted curve by direction and shape.
SMILES,Potency,"activity change, negative = growth inhibition"
O=C(CSc1nnc(-c2cccc(F)c2)c(-c2cccc(F)c2)n1)NC1CCCCC1,"inconclusive [inhibitor, single point]",
O=C(NCc1ccccc1)c1ccc2nccnc2c1,"inconclusive [inhibitor, single point]",
CCN1C(=O)N[C@@H](c2ccccc2)[C@@H](C(=O)OC)[C@H]1C,inactive,
CCS(=O)(=O)N1CCN=C1SCc1ccccc1,inactive,
CC(=O)c1c(C)[nH]c(C(=O)OCC(=O)NNC(=O)c2ccc([N+](=O)[O-])cc2)c1C,inactive,
COc1cccc(CSc2nc(-c3ccccc3F)nc3c2Cc2c(CO)cnc(C)c2O3)c1,active: 20.6 µM,
COc1ccc(-n2nc3c(N4CCC(C(=O)NCCc5ccccc5)CC4)nnc(C)c3c2C)cc1,"inconclusive [inhibitor, single point]",
O=c1[nH]cnc2c1c(-c1ccccc1)cn2-c1ccccc1,"inconclusive [inhibitor, single point]",
CC(C)CNC(=O)CN(c1cccc(Cl)c1)S(C)(=O)=O,inactive,
CC1CCC(NC(=O)c2ccc3snnc3c2)CC1 (stereo unspecified),inactive,
O=C(/C=C/NCc1cccnc1)c1ccc(Br)cc1,inactive,
S=C1NC(c2ccccc2)N2C(=S)NC(c3ccccc3)N12 (stereo unspecified),inactive,
CCCCCCc1nc(C(N)=O)c2[nH]c(=O)n(-c3ccc(OCC)cc3)c2n1,"inconclusive [inhibitor, single point]",
COc1cccc2c(=O)c3c(cnn3C)n(C)c12,"inconclusive [inhibitor, single point]",
Cn1c(=O)c2c(nc(N/N=C/c3cccs3)n2Cc2ccc(Br)cc2)n(C)c1=O,active: 23.1 µM,
COc1cccc(C(=O)NCCCNC(=O)c2cccnc2)c1,inactive,
Cc1ccc(CCNC(=O)c2ccc3nc4ccc(Cl)cc4c(=O)n3c2)cc1,inactive,
CC1=C(C(=O)N2CCOCC2)CC(CC(=O)NCCc2ccccn2)C(=O)N1CCCN1CCCC1=O (stereo unspecified),inactive,
COc1ccc(C(=O)NC2CCCc3c2cnn3-c2ccc(C)c(C)c2)c(OC)c1OC (stereo unspecified),,inconclusive: -36.7% [inhibitor]
CCOC(=O)c1c(C)[nH]c(C(=O)C(C)OC(=O)c2cnc(C)cn2)c1C (stereo unspecified),"inconclusive [inhibitor, single point]",
CC(C)OC(=O)c1ccc2nc3ccccc3nc2c1,"inconclusive [inhibitor, partial curve, poor fit]",
CCc1nc2ccc(C(=O)NCCC(C)C)cn2c1N(C)Cc1ccc(OC)cc1,active: 16.4 µM,
CCc1cc2c(SCC(=O)NC(=O)c3cccn3C)ncnc2s1,"inconclusive [inhibitor, single point]",
CSc1nsc(/C=C/Nc2cccc(Cl)c2)c1C#N,"inconclusive [inhibitor, single point]",

SMILES,Potency,"activity change, negative = growth inhibition"
CCc1ccccc1NC(=S)NC1CC2CCCC(C1)N2Cc1cccs1 (stereo unspecified),"inconclusive [inhibitor, single point]",
CC1CC(C)CN(C(=O)COC(=O)c2c[nH]c3ccccc23)C1 (stereo unspecified),inactive,
O=C(COC(=O)c1ccc(Cl)nc1)Nc1cc(S(=O)(=O)N2CCOCC2)ccc1Cl,"inconclusive [inhibitor, single point]",
O=S1(=O)CC(N2CCCCC2)CN1C1CCCCC1 (stereo unspecified),inactive,
O=C(Nc1ccc(NS(=O)(=O)c2ccc([N+](=O)[O-])cc2)cc1)c1ccco1,inactive,
O=C(CN1C(=O)NC(CCc2ccccc2)C1=O)Nc1ccc(F)c(F)c1F (stereo unspecified),"inconclusive [inhibitor, single point]",
CCOc1ccccc1NC(=O)C(NCC1CCCCC1)c1ccccc1 (stereo unspecified),inactive,
CC(=O)Oc1ccc(Cn2c(C)c(C(=O)N(C)Cc3ccc(F)cc3)sc2=O)cc1,"inconclusive [inhibitor, single point]",
COCCNc1nc2cc(-c3ccccc3OC)sc2c(=O)n1C,active: 13 µM,
CCOC(=O)c1c(NC(=O)COc2ccccc2Br)sc2c1CCCCC2,"inconclusive [inhibitor, single point]",
CC(C)(C)c1ccc(-c2noc(-c3ccc4c(c3)CCO4)n2)cc1,"inconclusive [inhibitor, single point]",
Cc1cc(/C=N/NC(=O)C(O)(c2ccccc2)c2ccccc2)c(C)n1-c1ccccc1,"inconclusive [inhibitor, single point]",
CCN1CCN(c2ccc(S(=O)(=O)N3CCOCC3)cc2NC(=O)c2cc(F)c(F)c(F)c2F)CC1,"inconclusive [inhibitor, single point]",
Cc1ccc(-c2nnc(Nc3ccccc3)c3ccccc23)cc1S(=O)(=O)N1CCN(C)CC1,"inconclusive [inhibitor, single point]",
CC(C)(C)c1ccc(C(=O)N(Cc2ccc(F)cc2)Cc2ccco2)cc1,"inconclusive [inhibitor, single point]",
COc1ccccc1N1CCN(c2ncnc3nc[nH]c23)CC1,"inconclusive [inhibitor, single point]",
O=C(NCc1ccc2c(c1)OCO2)NC12CC3CC(CC(C3)C1)C2,active: 18.4 µM,
CCCCCn1nnnc1-c1nc2cc3ccccc3cc2[nH]c1=O,active: 2.59 µM,
CNS(=O)(=O)c1cccc(C(=O)NCC2(N3CCCCC3)CCCCC2)c1,inactive,
CCOc1ccc(C2=NNC(c3cccs3)=Nc3ccc(OC)cc32)cc1OCC,"inconclusive [inhibitor, single point]",
CC(C)C(=O)NC(c1ccc(N(C)C)cc1)c1ccc2cccnc2c1O (stereo unspecified),active: 5.62 µM,
CC(=O)c1c(N)[nH]c(-c2ccccc2)nc1=S,active: 6.51 µM,
COc1cc(Cl)c(C)cc1NC(=O)c1cnn(-c2ccc(F)cc2F)c1C1CCN(C(=O)OC(C)(C)C)CC1,"inconclusive [inhibitor, single point]",
COc1ccc(NC(=S)N2CCNC(=O)C2CC(=O)Nc2ccc(C)cc2)cc1 (stereo unspecified),inactive,

SMILES,Potency,"activity change, negative = growth inhibition"
O=C(c1cccc(S(=O)(=O)N2CCc3ccccc3C2)c1)N1CCN(c2ccccc2)CC1,"inconclusive [inhibitor, single point]",
CCN(CCCNC(=O)c1ccc(Sc2ccc(Cl)cc2)c(NC(C)=O)c1)c1ccccc1,active: 23.1 µM,
CCOC(=O)C1(Cc2ccccc2)CCN(Cc2cnc(N3CCOCC3)s2)CC1,"inconclusive [inhibitor, single point]",
CC1CCCN(C(=O)Nc2cccc(NC(=O)N3CCCC(C)C3C)c2)C1C (stereo unspecified),"inconclusive [inhibitor, partial curve, poor fit]",
CN(C)c1ccc(C(=O)N2CCN(c3cc(C(F)(F)F)nc4ccccc34)CC2)cc1,"inconclusive [inhibitor, single point]",
O=C(c1cccs1)N(Cc1cccnc1)c1nc2c(F)cc(F)cc2s1,"inconclusive [inhibitor, single point]",
O=C(c1ccc(COc2ccc(Cl)cc2)cc1)N1CCCCC1,"inconclusive [inhibitor, single point]",
COc1ccc(/C=N/NC(=O)CCn2c3ccccc3c3ccccc32)cc1O,active: 1.64 µM,
CC(=O)N1CCN(S(=O)(=O)c2cccc(C(=O)NCc3ccc(F)cc3)c2)CC1,"inconclusive [inhibitor, single point]",
CCCc1n[nH]c(=O)[nH]1,inactive,
CCOC(=O)c1cnc2c(C)cc(Cl)cc2c1NCCCN1CCOCC1,"inconclusive [inhibitor, single point]",
COc1ccc(-c2nc(CSc3nnc(C)n4c3cc3oc(C)cc34)c(C)o2)cc1OC,"inconclusive [inhibitor, partial curve]",
CCc1ccc(NC(=O)C(=O)NCc2ccccn2)cc1,inactive,
Cc1cc(NC(=O)CN2C(=O)NC(CC(C)C)C2=O)ccc1Br (stereo unspecified),"inconclusive [inhibitor, single point]",
O=C(Nc1ccccc1)c1cccc(-c2nnc(-c3ccccc3)o2)c1,"inconclusive [inhibitor, partial curve, poor fit]",
Cc1ccc(C(=O)NCc2cccnc2)cc1S(=O)(=O)N1CCCCCC1,"inconclusive [inhibitor, single point]",
Cc1ccccc1-c1cc(C(=O)NCc2ccc(OC(F)(F)F)cc2)n(CC2CC(c3cccnc3)=NO2)n1 (stereo unspecified),"inconclusive [inhibitor, single point]",
CC(=O)Nc1nn(C)c2nc3ccc(C)cc3cc12,"inconclusive [inhibitor, single point]",
CCCCCCCCNC(=O)/C(C#N)=C/c1ccccc1[N+](=O)[O-],"inconclusive [inhibitor, single point]",
CCN(CC)S(=O)(=O)c1nnc(NC(=O)c2ccc(Br)cc2)s1,"inconclusive [inhibitor, single point]",
COc1ccc(NC(=O)N(Cc2ccc3c(c2)OCO3)C2CC(=O)N(c3ccc(OC)cc3)C2=O)cc1 (stereo unspecified),"inconclusive [inhibitor, partial curve]",
COc1cccc(N2CC(NC(=O)c3cccc4ccccc34)CC2=O)c1 (stereo unspecified),"inconclusive [inhibitor, single point]",
CCn1c(=O)c(C(=O)NCCc2ccc(OC)c(OC)c2)c(O)c2ccccc21,active: 20.6 µM,
